The list shows a part of the results. Single values are uncertain, as repeats are few or missing.
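Also: cells treated in 1,536-well plates, then fixed and DAPI-stained, with nuclei counted from automated high-throughput microscope images.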

In this assay the test system is COLO792. As to the kind of experiment: cell count relative to DMSO control; melanoma cells; higher = more viable cells. Conditions: library dose: standard library concentration; 72 h.
The compound `CCCCCCCCc1ccc(CCC(N)(CO)CO)cc1` [fingolimod] + CC(=O)c1c(C)c2cnc(Nc3ccc(N4CCNCC4)cn3)nc2n(C2CCCC2)c1=O [palbociclib] (first compound 10 µM, partner dose 0.2 µM) showed a cell count of 5.18%.
Take `CCCCCCCCc1ccc(CCC(N)(CO)CO)cc1` [fingolimod] + COc1ccc(-c2ccc3c(N4CCOCC4)nc(N4C[C@@H](C)O[C@@H](C)C4)nc3n2)cc1CO [KU0063794] (first compound 10 µM, partner dose 0.1 µM): the cell count is 2.75%.
As for `NC(=O)c1ccc(N(C(N)=O)c2c(F)cccc2F)nc1-c1ccc(F)cc1F` + Cc1ccc(NC(=O)c2cccc(N(C)C)c2)cc1NC(=O)c1ccc(O)cc1 [ZM336372] (first compound 2 µM, partner dose 10 µM), the figure is 89.2%; as for `CCCCCCCCc1ccc(CCC(N)(CO)CO)cc1` [fingolimod] + CC(=O)O[C@@]12CO[C@@H]1C[C@H](O)[C@@]1(C)C(=O)[C@H](O)C3=C(C)[C@@H](OC(=O)[C@H](O)[C@@H](NC(=O)OC(C)(C)C)c4ccccc4)C[C@@](O)([C@@H](OC(=O)c4ccccc4)[C@H]21)C3(C)C [Docetaxel] (first compound 10 µM, partner dose 0.0005 µM), 0.947%; as for `CC(C)(C)c1cnc(CSc2cnc(NC(=O)C3CCNCC3)s2)o1` + O=C(O)C(=O)Nc1sc2c(c1C(=O)O)CCNC2 [TCS401] (first compound 0.05 µM, partner dose 8.33333 µM), 93.1%.
The value for `CCc1ccc(CCOc2ccc(CC3SC(=O)NC3=O)cc2)nc1` (configuration not stated) [pioglitazone] + N#Cc1c(O)c2c(-c3ccc(-c4ccccc4O)cc3)csc2[nH]c1=O [A769662] (first compound 10 µM, partner dose 10 µM) was 87.3%; that for `CCCCCCCCc1ccc(CCC(N)(CO)CO)cc1` [fingolimod] + OCCn1cc(-c2cnc3nnn(Cc4ccc5ncccc5c4)c3n2)cn1 [PF04217903] (first compound 10 µM, partner dose 5 µM) was 28.3%; that for `Cc1ccc(NC(=O)c2cccc(N(C)C)c2)cc1NC(=O)c1ccc(O)cc1` + Cc1cc(N2CCOCC2)cc2[nH]c(-c3c(NC[C@@H](O)c4cccc(Cl)c4)cc[nH]c3=O)nc12 [BMS536924] (first compound 10 µM, partner dose 1 µM) was 75.4%.
In turn, `COc1cc2c(Oc3ccc4[nH]c(C)cc4c3F)ncnc2cc1OCCCN1CCCC1` [cediranib] + Oc1nc(-c2ccc(C(F)(F)F)cc2)nc2c1CSCC2 [XAV939] (first compound 2 µM, partner dose 10 µM) registered a cell count of 81.5%.
The value for `CCCCCCCCc1ccc(CCC(N)(CO)CO)cc1` [fingolimod] + N#Cc1c(O)c2c(-c3ccc(-c4ccccc4O)cc3)csc2[nH]c1=O [A769662] (first compound 10 µM, partner dose 10 µM) was 4.4%.
The compound `CN(NC(=O)CC(=O)NN(C)C(=S)c1ccccc1)C(=S)c1ccccc1` + CCCCCCCCCCCC1=C(O)C(=O)C=C(O)C1=O [Embelin] (first compound 0.03 µM, partner dose 6 µM) returned a cell count of 13.3%.
The value for `Cc1ccc(NC(=O)c2cccc(N(C)C)c2)cc1NC(=O)c1ccc(O)cc1` + CN(NC(=O)CC(=O)NN(C)C(=S)c1ccccc1)C(=S)c1ccccc1 [STA4783] (first compound 10 µM, partner dose 0.03 µM) was 17.2%.
As for `CC(C)(C)c1cnc(CSc2cnc(NC(=O)C3CCNCC3)s2)o1` + O=S(=O)(c1ccccc1)N(CC(F)(F)F)c1ccc(C(O)(C(F)(F)F)C(F)(F)F)cc1 [T0901317] (first compound 0.05 µM, partner dose 7 µM), the figure is 72.3%.
`CCCCCCCCc1ccc(CCC(N)(CO)CO)cc1` [fingolimod] + O=C1NC(=O)/C(=C/c2ccc(-c3ccc(F)cc3O)o2)S1 [AS252424] (first compound 10 µM, partner dose 5 µM) yielded a cell count of 1.31%.
`COc1cc2c(Oc3ccc4[nH]c(C)cc4c3F)ncnc2cc1OCCCN1CCCC1` [cediranib] + CCN(CC)CCCCNc1ncc2cc(-c3cc(OC)cc(OC)c3)c(NC(=O)NC(C)(C)C)nc2n1 [PD173074] (first compound 2 µM, partner dose 0.5 µM) showed a cell count of 87.9%.
Compound `CCCCCCCCc1ccc(CCC(N)(CO)CO)cc1` [fingolimod] + O=c1cc(-c2cccc3c2Sc2ccccc2S3)oc(N2CCOCC2)c1 [KU55933] (first compound 10 µM, partner dose 5 µM) yielded a cell count of 2.32%.
In turn, `Cc1ccc(NC(=O)c2cccc(N(C)C)c2)cc1NC(=O)c1ccc(O)cc1` + O=C(O)c1ccc(-c2c[nH]c3ncc(-c4ccccc4)cc23)cc1C1CCCC1 [GSK650394] (first compound 10 µM, partner dose 0.8 µM) came in with a cell count of 82.3%.

The values are drawn from the supplement of paper PMC4604168 (melanoma cell lines).
